Measured values as given in publication PMC12136788.
This is one part of the list.

T1: UNK ZnF1-3 (human, UniProt Q9C0B0 31-174)
T1 sequence: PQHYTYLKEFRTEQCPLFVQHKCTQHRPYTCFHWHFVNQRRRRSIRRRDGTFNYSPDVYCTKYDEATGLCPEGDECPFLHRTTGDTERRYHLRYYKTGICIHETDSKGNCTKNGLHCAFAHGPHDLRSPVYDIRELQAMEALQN

B1: chr1:60041781:60041782:+_ENSMUSG00000041040_ENSMUST00000036540|mus_hu|mus_mus_mus_hu_False|8_18 (ssRNA)
RNA: GGGAGUUCUACAGUCCGACGAUCAAGUUUACAAUAGUAAAGUAAAUGCAGUAGUGGCAAAUUUUCUUUUAUUUUCCUUCACAAAAGAAAAUCUUUAUAACCCAGUCCUAGUCUUGGCAGAGAAAGCUCUCCAUGGGUCUGACUCAACAGAGGAUUGAGCAUCA
B2: chr17:49118984:49118985:-_ENSG00000008294_ENST00000510283|hu_mus|motif|central (ssRNA)
RNA: GGGAGUUCUACAGUCCGACGAUCUCCUUUCUGAGUGUCAGGUGUAAGCAAUCCAUCUCCAGCAGGUAGAGGGAAAAUCCCGGAUGAUAUAGGACGUUCUUUUCUGAGUAUCCUUGGUAGGUUCUGCGUCAGCGCUGGCACCCCCAACAGAGGAUUGAGCAUCA
B3: chr4:120564514:120564515:+_ENSMUSG00000032890_ENSMUST00000071093|mus_hu|FALSE|FALSE (ssRNA)
RNA: GGGAGUUCUACAGUCCGACGAUCAGACCACCAGGAGCAGGCACAGGUGAAGAACACACAGGCUCUGCCCCAGGCCAGGACCAGGCAGCACCGACCAGUGGCCGCAUGCCCCACCUCCAUCCCUGGAGACUCCUCAGGGUGAGUCAACAGAGGAUUGAGCAUCA
B4: chr7:151048522:151048523:+_ENSG00000013374_ENST00000566856|hu_mus|hu_hu_hu_mus_True|18_68 (ssRNA)
RNA: GGGAGUUCUACAGUCCGACGAUCCUGUUUCUUAUUUAUUACGAUCUUGAUGUAAUUUUCUUGAAAUCCAAAGGUUUCAGCUAUUUGACACCUCAGGUCUCUACCAGUGACAUGCAAUCGGGUCUCCAACAAGCUUUUCUUAUCCAACAGAGGAUUGAGCAUCA
B5: chr9:14812383:14812384:-_ENSMUSG00000031934_ENSMUST00000164273|mus_mus|mus_mus_mus_hu_True|28_38 (ssRNA)
RNA: GGGAGUUCUACAGUCCGACGAUCAUAGCCCAGGUAGAUACACGCUAACAGUAUAAUGAUGAGUGUCAGCAGGCGGCAGCUAAUGUACUUGAUGAUUAAAUGACUAGAGUUCUUUUUUGUCUUCAAGUACUGCUCCACAAUUGGCAACAGAGGAUUGAGCAUCA
B6: chr14:66974463:66974464:+_ENSMUSG00000022044_ENSMUST00000074523|mus_mus|motif|central (ssRNA)
RNA: GGGAGUUCUACAGUCCGACGAUCUUGUAGGAUGAUUUAUUCAGGGGAUCAGACAAGAAGCAAGAGCAGAACAGAGACACGGGUGGGAGUUCCUUCAUCUUCUCCUUAUAGGCUGCAAGAGUCAUGUUGGCUGGAAUCUGGUGGCAACAGAGGAUUGAGCAUCA
B7: chr15:85967975:85967976:+_ENSMUSG00000035900_ENSMUST00000088931|mus_hu|FALSE|FALSE (ssRNA)
RNA: GGGAGUUCUACAGUCCGACGAUCCAAAGCAUUUUAGGUUUAUUUAAAUAAAAAUUAUAAUUUAUACAAUACUUUUUCUUUAAACAAACAAAGUUUUCUUAAAAAAAUGUUACAGGAGAAUUUUUUUCAUCGGUUCUUAAUACACAACAGAGGAUUGAGCAUCA
B8: 35774738_35774858_1489_3pUTR_ENSMUSG00000016534_ENSMUST00000061755|mouse|control|control (ssRNA)
RNA: GGGAGUUCUACAGUCCGACGAUCAUAGUAUUUGGAAUUCUUUUGUUUUAAUUUGAGCUCUACUAUACCACCCAAUCUAAGAGCAGGACUGUAACUAAUGUACCUUCAAUAGUAUUGCAUGCGAGAACUUGUACUUGCUUUAUUCAACAGAGGAUUGAGCAUCA
B9: chr1:163117127:163117128:-_ENSG00000143248_ENST00000313961|hu_mus|hu_hu_hu_mus_False|58_88 (ssRNA)
RNA: GGGAGUUCUACAGUCCGACGAUCUGCUACAAAGGAUGUAACUCAACACUCACAGGAACUUUUGGAAGCCUGACCAGAUUACUACUUGAUUAGCUCCUUAUAAAAUUCAGAGCGCACAAAGCGGGGCAGAGAAUCCUUCUCCAUCAACAGAGGAUUGAGCAUCA
B10: chr7:65705844:65705845:+_ENSG00000169902_ENST00000304842|hu_mus|hu_hu_hu_mus_False|8_28 (ssRNA)
RNA: GGGAGUUCUACAGUCCGACGAUCAAACGGAUCUUUGUUACAUAAAUAAGGUGCCGGCUCCCCAUGUUUAACAAUGACCUCCAGAAGGAAGGCUUGCAUGGCAGAAUCCAGCACUUCAUCUGUGACACCAGCCUCAUCCAAGCGCAACAGAGGAUUGAGCAUCA
B11: chr10:13244450:13244451:-_ENSMUSG00000019809_ENSMUST00000019945|mus_mus|FALSE|FALSE (ssRNA)
RNA: GGGAGUUCUACAGUCCGACGAUCAAGGACACCACAUUCCAUUCCAUAUACGUAUGGAAGUACCUAGUUGGUUUGGAUCAGCUAUCCAGACUUUAAGAAAUCAUGAUUGAUCCUGAUGUAAUUUGUGCACCAGUUAGAUACACCCAACAGAGGAUUGAGCAUCA
B12: chr19:42637464:42637465:+_ENSMUSG00000025184_ENSMUST00000026188|mus_hu|FALSE|FALSE (ssRNA)
RNA: GGGAGUUCUACAGUCCGACGAUCAGUUUCAACUUCCAAACACUCCACCUUCUUUGGUUUAAAAUGUCUCUGCAAAGGUGCAUUAGUUAUAACCCCAGCAUUUGGGGCUCCCUGCUGUUGUCCUUGGGAUAAUACUUCUUUGGACAACAGAGGAUUGAGCAUCA
B13: chr9:110451384:110451385:+_ENSMUSG00000044791_ENSMUST00000153838|mus_hu|FALSE|FALSE (ssRNA)
RNA: GGGAGUUCUACAGUCCGACGAUCAGGAUUUUUAUUAAUCAUUCUUAAUUCACUACCUUUUGAACAAGGUGUCUGUAAACUAAAAGAAUGAGACUGUUUGAUUUCUUCAUUUAAUUCUGUACAACAGAAAGAAUUUUUAAAUUUCAACAGAGGAUUGAGCAUCA
B14: chr1:150795811:150795812:-_ENSG00000143437_ENST00000358595|hu_hu|motif|central (ssRNA)
RNA: GGGAGUUCUACAGUCCGACGAUCCCAUUCUUGGUUCUUAGACCGGAACCGGAACAUGACAGACAGCACUUGGCCUUUUAAUUUCACGGCCUGUUGGAAGCUGUCUCUUAGAAGCUGCUGGUCUUCAGGAUGACAGAAUUCUACCAACAGAGGAUUGAGCAUCA
B15: chr4:57314706:57314707:+_ENSG00000128050_ENST00000264221|hu_mus|hu_hu_hu_mus_True|38_98 (ssRNA)
RNA: GGGAGUUCUACAGUCCGACGAUCCAGAAUUUCAAAAAUAGCCUGUGUGGCAUGACUCAUGAUGUCCACUUCAGUCUGCCCUAUAACAAGGCCAGCAAAGCAAAAUUUUGCAGCAAUGAGUUGCUCCUCAGACCACUGUGGAUCCAACAGAGGAUUGAGCAUCA
B16: 89284534_89284654_251_5pUTR_ENSMUSG00000022619_ENSMUST00000023291|mouse|control|control (ssRNA)
RNA: GGGAGUUCUACAGUCCGACGAUCCAUCUUCCCUGGAACCGCCGGCCGGCAGCGAGGGGGAGGGGUGAGGAGCACCGCGCGCCCUUGGUGCUCAGGCUCGCGGCCUCUGUCUCCCCACUCACCUCGUGACACGCCCUGCGACACCAACAGAGGAUUGAGCAUCA
B17: chr7:125341739:125341740:-_ENSMUSG00000030655_ENSMUST00000032891|mus_mus|FALSE|FALSE (ssRNA)
RNA: GGGAGUUCUACAGUCCGACGAUCUCUGUAUAGAACAUCUGUUACGUAUGCCUCUGUAAUUGGUGGACCCCGAAUUGGGCUAAAGCGUUCCCCAAUGCUCCUCACCACAGUACUGAACACACGGAGAAGUGCUGCCAGCUUUGGCAACAGAGGAUUGAGCAUCA
B18: chr12:42180722:42180723:-_ENSMUSG00000036295_ENSMUST00000043884|mus_hu|mus_mus_mus_hu_True|58_88 (ssRNA)
RNA: GGGAGUUCUACAGUCCGACGAUCCUGUAGGAGAAGAAUCUGUGUGUCGGCAGGCAAUCUGGCUGGGAAAGUUAAAAGCCCUAAAUCAUUACAAUCCACUGUAGAUGCUUCCAUAUAAAUGGAUCUGGGUGUAAACCAAGGCCUCAACAGAGGAUUGAGCAUCA
B19: chr14:35182089:35182090:-_ENSG00000165410_ENST00000422678|hu_hu|FALSE|FALSE (ssRNA)
RNA: GGGAGUUCUACAGUCCGACGAUCCUUAAGAUCCAGAUGGCACUUGACUGUCAUUUUAUAAUGGUUUUCCUUCAAGUGAAACUACUACAUUGCCUCCCAAUUUCUCUCCAAGUGUCGAACGGUCCUUAAUAUCAUCCAAGCCAUCAACAGAGGAUUGAGCAUCA
B20: chr5:71493418:71493419:+_ENSG00000131711_ENST00000296755|hu_mus|FALSE|FALSE (ssRNA)
RNA: GGGAGUUCUACAGUCCGACGAUCCCCUUCAAAGGGGCUUUCGGAACGUCUGCCAAGAACCUUGCUAUCAGCACUCAGGAAGUCUUCAUAUGGGGACUCAGAUCCAAGAAGGGGAGGACUGCGUAAAGGAGACAGAACCUUCUCCAACAGAGGAUUGAGCAUCA
B21: 114354355_114354475_683_3pUTR_ENSG00000081019_ENST00000261441|human|control|control (ssRNA)
RNA: GGGAGUUCUACAGUCCGACGAUCGCACCCCUCCAGUCCUCUCGCCGUUUUCCUGCUUGUCCUUGUGCUUGAGAUCGGUUCCGCAGGAGCUGGGAUCACCAUCGGGGCCGCGGUGGUGAUGGUGCUUGUGCCGCUCCUUGUGGCCAACAGAGGAUUGAGCAUCA
B22: chr1:39494564:39494565:+_ENSG00000168653_ENST00000372967|hu_hu|hu_hu_hu_mus_True|88_88 (ssRNA)
RNA: GGGAGUUCUACAGUCCGACGAUCAUGCAUUCGCCUCAUCGUUUUGUGCCGAAGCAAGCACUCUUCGAAGUCAUCGAACUCUAUCUUGCACUCCUUUUUCGCCCGGGUCCCACCGAUCCCGUGUGCACACUCUAUCCACUCUUUCAACAGAGGAUUGAGCAUCA

molecular target: T1, UNK ZnF1-3; experiment: nsRBNS (natural sequence RNA bind-n-seq); RBNS binding buffer (assumed for nsRBNS): 25 mM Tris pH 7.5, 150 mM KCl, 3 mM MgCl2, 0.01% Triton X-100, 500 ug/ml BSA, 20 U/ml SUPERase-In, 4 C; UNK is unkempt and MSI1 is Musashi-1; names of the RNAs are library labels; protein concentration not given here; high values mean tight binding

For B1, which binding signal is on record?
The binding signal was 0.736 enrichment R.

How did the binding signal turn out when B2 was run?
The binding signal was 0.803 enrichment R.

Which binding signal does the source give for B3 here?
The binding signal was 1.32 enrichment R.

Which binding signal does the source give for B4 here?
The binding signal was 0.591 enrichment R.

With B5 as the binder, how does the binding signal read?
Its binding signal is 1.25 enrichment R.

Which binding signal does the source give for B6 here?
Its binding signal is 1.8 enrichment R.

With B7 as the binder, how does the binding signal read?
Its binding signal is 0.501 enrichment R.

With B8 as the binder, how does the binding signal read?
Its binding signal is 0.672 enrichment R.

Which binding signal does the source give for B9 here?
Its binding signal is 1.11 enrichment R.

How did the binding signal turn out when B10 was run?
Its binding signal is 0.456 enrichment R.

B11 was tested. Which binding signal did it give?
Its binding signal is 0.868 enrichment R.

How did the binding signal turn out when B12 was run?
Its binding signal is 1.14 enrichment R.

For B13, which binding signal is on record?
The binding signal was 0.351 enrichment R.

B14 was tested. Which binding signal did it give?
Its binding signal is 0.8 enrichment R.

Which binding signal does the source give for B15 here?
The binding signal was 0.847 enrichment R.

Which binding signal does the source give for B16 here?
The binding signal was 0.876 enrichment R.

With B17 as the binder, how does the binding signal read?
Its binding signal is 0.683 enrichment R.

Which binding signal does the source give for B18 here?
Its binding signal is 1.15 enrichment R.

How did the binding signal turn out when B19 was run?
The binding signal was 0.879 enrichment R.

How did the binding signal turn out when B20 was run?
The binding signal was 1.13 enrichment R.

How did the binding signal turn out when B21 was run?
The binding signal was 0.738 enrichment R.

Which binding signal does the source give for B22 here?
Its binding signal is 0.677 enrichment R.
